Reference: the supplement of paper PMC10115384

What was measured:
Test in all cases: pseudovirus neutralization IC50; higher = weaker neutralization
[1] = molecular target: SARS-CoV-2 Beta spike pseudovirus; conditions: system: VSV particle, 293T-ACE2 cells
Method: (§1)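 Single-round reporter pseudovirus mixed with dilutions of yeast-made human IgG and put on ACE2-bearing cells; IC50 from the dose curve.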

[2] = molecular target: SARS-CoV-2 index (Wuhan-Hu-1) spike pseudovirus
Method: as §1

[3] = molecular target: SARS-CoV-2 Delta spike pseudovirus; conditions: system: VSV particle, 293T-ACE2 cells
Method: as §1

[4] = molecular target: SARS-CoV-2 Omicron BA.1 spike pseudovirus; conditions: system: MLV particle, HeLa-ACE2 cells
Method: as §1

[5] = system: VSV particle, 293T-ACE2 cells
[6] = system: MLV particle, HeLa-ACE2 cells

Binder | pseudovirus neutralization IC50 [1] [µg/mL] | pseudovirus neutralization IC50 [2, 5] [µg/mL] | pseudovirus neutralization IC50 [3] [µg/mL] | pseudovirus neutralization IC50 [2, 6] [µg/mL] | pseudovirus neutralization IC50 [4] [µg/mL]
ADI-67466 (protein) chain 1: QVQLVESGGGLVKPGGSLRLSCAASGFTFSDYYMSWIRQAPGEGLEWISLITSSGSAIYYADSVKGRFTISRDNAENSLYLQIHTLRAEDTAVYYCARDQGRLTGTTTNFDCWGQGTLVTVSS chain 2: DIQMTQSPSSLSASVGDRVTLTCRASQSISSFLNWYQQKPGKAPKLLIYAASRSQSGVPSRFSGSGSGTDFTLTINGLQPEDFASYYCQQSNSIPLTFGGGTKVEIK | > 1 | > 1 |  |  | 
ADI-67467 (protein) chain 1: QVQLVQSGAEVKKPGSSVKVSCKASGDTFSIYAFSWARQAPGQGLEWMGGTIPSLDSVNYAQKFQGRVTITADESTSTAFMELNSLRSEDTAVYYCATAHVAYGDYVPSDYWGQGTLVTVSS chain 2: EIVLTQSPGTLSLSPGERATLSCRASQSVSSNYLAWYQQKPGQAPRLVIYGASSRATGIPDRFSGSGSGTDFTLTISRLEPDDFAVYYCQQYGTSPPWTFGQGTKVEIK | > 1 | > 1 | > 1 |  | 
ADI-67474 (protein) chain 1: QVQLVQSGAEVKKPGASVKVSCKASGYTFNSYGINWVRQAPGQGLEWMGWISGYNHNTDYAQKFQDRVTMTTDTSTSTAYMDLRSLRSDDTAVYYCARDPGSFGTVADYWGQGTLVTVSS chain 2: EIVLTQSPGTLSLSPGERATLSCRARQSVSSSFLAWYQQKPGQAPRLLIYGASSRATGIPDRFSGSGSGTDFTLTISRLEPEDFAVYYCQQYGYSVYTFGQGTKLEIK | > 1 | > 1 | > 1 |  | 
ADI-67478 (protein) chain 1: EVQLVESGGGLVQPGKSLRLSCAGSGFTFSSYAMSWVRQAPGKGLQWVSTISGGGGGTYYADSVKGRFTISRDNSKNTLYLQMDSLRAEDTAIYYCATHRGTVFFLTWGQGTLVTVSS chain 2: EIVLTQSPGTLSLSPGERATLSCRASQSVTSNYLAWYQQKPGQAPRLLIYGASSRATGIPDRFSGSGSGTDFTLTINRLEPEDFAVYHCQQYGGSPPTFGQGTKVEIK | > 1 | 0.813 | > 1 |  | 
ADI-67481 (protein) chain 1: EVQLVESGGGLIQPGGSLRLSCAASGVTVSSNYMSWVRQAPGKGLEWVSVIYSGGTTFYADSVKGRFTISRDNSKNTLYLQMNSLRAEDTAVYYCARDLDVMGGFDYWGQGTLVTVSS chain 2: DIQLTQSPSFLSASVGDRVTITCRASQGMSNFLAWYQQKPGKAPKLLIYAASTLQSGVPSRISGSGSGTEFTLTISSLQPEDFATYYCQELNSYPRTFGQGTKVEIK | > 1 | 0.0589 | 0.123 | 0.00579 | 
ADI-67483 (protein) chain 1: QVQLVQSGAEVKKPGSSMKISCKASGGAFSIYTIAWVRQAPGQGLEWMGGIIPMSGTPNYAQNFQGRVTITADESTTTVYMHLSSLRSEDTAVYFCARDYRYCSGNSCSFWFDPWGQGTLVTVSS chain 2: DIQMTQSPSSLSASVGDRITITCRASQSISNYLNWYQQKPGKAPKVLIYTASSLQSGVPSRFSGSGSGTDFTLTISSLQPEDFATYFCQQSYSTPRTFGQGTKVEIK | > 1 | > 1 | > 1 |  | 
ADI-67628 (protein) chain 1: QVQLVESGGGVVQPGRSLRLSCGASGFTFGSYNMHWVRQAPGKGLEWVAVIWHDGSNKYYADSVKGRFTISRDNSKSTLYLQMNSLSPEDTSVYYCARDTEITNFDMDVWGQGTTVTVSS chain 2: DVVMTQSPLSLPVTLGQPASISCRSSQSLVYIDGNTYLNWFLQRPGQSPRRLIYKVSNRDSGVPDRFSGSGSGTDFTLKISRVEAEDVGLYYCMQGTHWPPTFGQGTKVEIK | > 1 |  | > 1 |  | 
ADI-67649 (protein) chain 1: QVQLQESGPRLVRPAGTLSLTCAVSGGSIRSSNWRSWVRQPPGKGLEWIGEIYHTGGTNYNPSLKSRVTISVDKSTNQFSLRLDSVTAADTAVYYCARDIRQDDCSTTRCPEYWGQGTLVTVSS chain 2: EIVLTQSPATLSLSPGERATLSCRASQSVTSSLAWYQQKPGQAPRLLIYDASYRATGIPARFSSSGSGTDFTLTISSLEPEDFAVYYCQQRSNWPPTFGPGTKVDIK | > 1 | 0.012 | 0.0302 |  | 
ADI-67652 (protein) chain 1: QVQLVQSGAEVKKPGASVKVSCKASGYTFTGHFIHWVRQAPGQGLEWMGWINPMSGNTNYAQTFQGRVTMTRDTSIQTVYMELSRLRSDDTAVYYCARDRNWAIFGVESDVWGKGTTVTVSS chain 2: QSALTQPASVSGSPGQSITISCTGTSSDIRTYNLVSWYQQHPGNAPKLMIYEVNKRPSGISHRFSGSKSGHTASLTISGLQAEDEADYYCCSYADSSAWVFGGGTKLTVL | > 1 | 0.17 | 0.302 | 0.00754 | 
ADI-67679 (protein) chain 1: EVQLVETGGGLIQPGGSLRLSCAVSGFIVSRNYMSWVRQAPGKGLEWVSVIYSGGSTFYADSVKGRFTISRDDSNNMMYLQMNSLRADDTAVYYCARDLAGPGLFDHWGQGTLVTVSS chain 2: DIQMTQSPSSLSASVGDRVTITCQASQGISNFLNWYQQKPGKAPKLLIYDASILERGVPSRFSGSGSGTDFTLTISGLQPEDIATYYCQQYDNVPSITFGQGTRLEIK | > 1 | 0.0584 | 0.0599 | 0.0203 | 0.12
ADI-67680 (protein) chain 1: QVQLVESGGGVVHPGRSLRLSCAASGFTFKTYGMHWVRQAPGKGLEWVAVIWYDGSKKYYVDSVKGRFTISRDNSKNTMYLQMNSLRAEDTAVYFCARDGTIAVAGTFDRFFDLWGRGTLVTVSS chain 2: DIQMTQSPSSLSASVGDRITITCQASQDISNYLNWYQQKPEKAPKLLIYDASNLEAGVPSRFSGRRSGTDFTFTISSLQPEDIATYYCQQYHILPFTFGPGTKVDIK | > 1 | 0.111 | 0.238 |  | 
ADI-67726 (protein) chain 1: QVQLVQSGAEVKKPGASVKVSCKASGYTFTSYEINWVRQATGQGLEWMGRMNPNSGYTDYAQKFQGRLTLTRNTSISTAYMELSRLRSEDTAVYYCATKRVQVPRRYYYYMDLWGKGTTVTVSS chain 2: DIVMTQSPLSLPVTPGEPASISCRSSQSLLHSHGYNYLDWYLQKPGQSPHLLIYMGSNRASGVPDRFSGSGSGTDFTLKISRVEAEDVGVYYCMQSLQTPLTFGGGTKVEIK |  | 0.0258 | 0.0235 |  | 
ADI-67730 (protein) chain 1: QVQLQESGPGLVKPSETLSLTCTVSGGSIKTYYWAWIRQPPGRGLEWIGYIYYSETTNFNPSLKSRVTMSFDTSKNQFSMKLSSVTAADTAVYYCARQSQGPYDFLTGKIYDAFDIWGQGTMVTVSS chain 2: DIQMTQSPSSLSASVGDRITITCRASQSISKFLNWYQQKPGKAPKLLIYAASSLQSGVPLRFNASGSGTDFTLTISSLQPEDFAIYYCQQSYSTPQTFGPGTKVDIK |  | > 1 | > 1 |  | 
ADI-67757 (protein) chain 1: QVQLVQSGAEVKKPGASVKVSCKASGYAFTTYDINWVRQATGQGLEWMGWTNPNSGNTGYTQKFQGRITMTRNNSISTAYMELSSLRSEDAAVYYCARGGSLKGNRRPVASSYYYNGMDVWGQGTTVTVSS chain 2: EIVMTQSPATLSVSPGDRATLSCRTSQSVDSYLAWYQQKPGQAPRLLIYGASTRATGIPARFSGSGSGTEFTLTISSLQSEDFAVFYCQQYNNWPLTFGGGTKVEIK |  | 0.0216 | 0.0302 |  | 
ADI-67854 (protein) chain 1: QVQLQESGPGLVKPSQTLSLTCTVSGDSISSGSSYWSWIRQHPGEGLEWIGYISYGGSSYYNPSLKSRVTISVDTSKNQFSLRLTSVTAADTAIYYCASGLWSGFYYFDYWGQGTLVTVSS chain 2: EIVLTQSPGTLSLSPGERATLSCRASQSVRSSYLAWYQQKPGQAPRLLIYGASNRATGIPDRFSGSGSGTDFIFIISRLEPEDFAVYYCQQYGSLPLTFGGGTKVEIK |  |  | > 1 |  | 
ADI-67935 (protein) chain 1: QVQLQESGPGLVKPSQTLSLTCTVSGGSLSSGGYYWTWIRQHPGKGLEWIGHIYYTGVTYYNSSLKSRVTISEDKSKNQFSLKLTSVTAADTAVYYCARGPYASGSFDSWGQGTLVTVSS chain 2: EIVLTQSPGTLSLSPGERATLSCRASQSVSSNYLAWYQQKPGQAPRLLIYVASSRATGIPDRFSGSGSGTDFTLTISRLEPEDSGVYYCHHYGSSGDTFGQGTKVEIK |  | 0.048 | 0.039 |  | 
ADI-67945 (protein) chain 1: QVQLVESGGGVVQPGRSRRVSCAASGFIFNTYAMHWVRQAPGNGLEWVAVISYDGNNKYYADSVRGRFTISRDNSKNTLYLQMHSLRAEDTAVYYCARGGGSYFHAFDIWGQGTMVTVSS chain 2: DIVMTQSPDSLAVSLGERATINCKSSQSVLYSSNNKNYLAWYQQKPGQPPKLLIYWASTRDSGVPDRFSGSGSGTDFTLTISSLQAEDVAVYYCQEYYSNPFTFGPGTKVDIK |  | > 1 | > 1 |  | 

Human monoclonal antibodies (heavy:light variable regions, translated from the printed DNA). IC50 against SARS-CoV-2 spike pseudoviruses, on VSV particles in 293T-ACE2 cells (24 h) or MLV particles in HeLa-ACE2 cells (72 h); lower = stronger; >1.0 µg/ml as printed. No active / inactive call per row; the paper counts an IC50 of 0.4 µg/ml or less on any variant as neutralizing. Only 98 of the paper's 459 antibodies have neutralization values; the two systems are not on one scale.
